No constants are given. Whether binding was seen depends on the method and setting. Binding seen in cells or lysates may run through a third protein. Some binding calls cover weakened binding; strength is not graded here.
Assays:
[1] = target: T1, RI-UBE2M peptide (XY-UBE2M, Arg/N-degron type 1 control) (human); assay: pull-down; biotinylated peptides on streptavidin magnetic beads; extract of HeLa cells transiently expressing UBR4-V5 (300-500 ug total protein); binding buffer 20 mM HEPES pH 7.9, 200 mM KCl, 0.05% Tween 20, 10% glycerol; overnight at 4 C; immunoblot; only the target purified
T1 sequence (peptide, biotin on the added C-terminal lysine (K-biotin)): RIKLFSLKQQKK

Sequences of proteins named here, by UniProt entry; tags and fusion partners are left off. Residues count along the entry.
UniProt Q9P0J7: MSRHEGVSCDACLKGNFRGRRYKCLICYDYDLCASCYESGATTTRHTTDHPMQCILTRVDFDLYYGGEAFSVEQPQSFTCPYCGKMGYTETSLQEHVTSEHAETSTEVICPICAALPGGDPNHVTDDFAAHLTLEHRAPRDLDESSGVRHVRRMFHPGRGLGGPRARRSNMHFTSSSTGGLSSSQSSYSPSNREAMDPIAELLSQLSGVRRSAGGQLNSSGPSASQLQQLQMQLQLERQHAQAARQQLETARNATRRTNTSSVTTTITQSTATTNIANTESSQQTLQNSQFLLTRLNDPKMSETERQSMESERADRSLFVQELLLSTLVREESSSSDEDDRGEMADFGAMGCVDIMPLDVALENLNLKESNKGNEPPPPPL
UniProt A2AN08, residues 1222-1996: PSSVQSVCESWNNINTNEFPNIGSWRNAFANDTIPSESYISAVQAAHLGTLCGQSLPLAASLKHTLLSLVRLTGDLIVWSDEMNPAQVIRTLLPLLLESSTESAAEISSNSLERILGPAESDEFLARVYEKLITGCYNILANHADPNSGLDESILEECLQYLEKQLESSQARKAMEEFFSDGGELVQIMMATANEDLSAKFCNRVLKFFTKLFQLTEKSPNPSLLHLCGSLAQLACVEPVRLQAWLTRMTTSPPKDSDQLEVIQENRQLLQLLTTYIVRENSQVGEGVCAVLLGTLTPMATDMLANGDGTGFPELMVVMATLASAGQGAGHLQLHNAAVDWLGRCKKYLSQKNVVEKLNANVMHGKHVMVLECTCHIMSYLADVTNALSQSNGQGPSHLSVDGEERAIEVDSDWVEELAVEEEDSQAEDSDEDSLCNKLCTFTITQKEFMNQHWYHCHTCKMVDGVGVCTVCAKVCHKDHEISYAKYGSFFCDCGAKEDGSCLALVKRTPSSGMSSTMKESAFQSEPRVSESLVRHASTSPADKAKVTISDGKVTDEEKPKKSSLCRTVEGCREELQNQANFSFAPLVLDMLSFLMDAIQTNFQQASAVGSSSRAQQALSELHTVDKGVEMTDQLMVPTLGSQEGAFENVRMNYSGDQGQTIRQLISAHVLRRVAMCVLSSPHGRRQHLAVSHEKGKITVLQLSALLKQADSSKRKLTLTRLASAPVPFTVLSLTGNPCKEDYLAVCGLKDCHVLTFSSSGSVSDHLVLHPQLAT
UniProt Q8IWV8: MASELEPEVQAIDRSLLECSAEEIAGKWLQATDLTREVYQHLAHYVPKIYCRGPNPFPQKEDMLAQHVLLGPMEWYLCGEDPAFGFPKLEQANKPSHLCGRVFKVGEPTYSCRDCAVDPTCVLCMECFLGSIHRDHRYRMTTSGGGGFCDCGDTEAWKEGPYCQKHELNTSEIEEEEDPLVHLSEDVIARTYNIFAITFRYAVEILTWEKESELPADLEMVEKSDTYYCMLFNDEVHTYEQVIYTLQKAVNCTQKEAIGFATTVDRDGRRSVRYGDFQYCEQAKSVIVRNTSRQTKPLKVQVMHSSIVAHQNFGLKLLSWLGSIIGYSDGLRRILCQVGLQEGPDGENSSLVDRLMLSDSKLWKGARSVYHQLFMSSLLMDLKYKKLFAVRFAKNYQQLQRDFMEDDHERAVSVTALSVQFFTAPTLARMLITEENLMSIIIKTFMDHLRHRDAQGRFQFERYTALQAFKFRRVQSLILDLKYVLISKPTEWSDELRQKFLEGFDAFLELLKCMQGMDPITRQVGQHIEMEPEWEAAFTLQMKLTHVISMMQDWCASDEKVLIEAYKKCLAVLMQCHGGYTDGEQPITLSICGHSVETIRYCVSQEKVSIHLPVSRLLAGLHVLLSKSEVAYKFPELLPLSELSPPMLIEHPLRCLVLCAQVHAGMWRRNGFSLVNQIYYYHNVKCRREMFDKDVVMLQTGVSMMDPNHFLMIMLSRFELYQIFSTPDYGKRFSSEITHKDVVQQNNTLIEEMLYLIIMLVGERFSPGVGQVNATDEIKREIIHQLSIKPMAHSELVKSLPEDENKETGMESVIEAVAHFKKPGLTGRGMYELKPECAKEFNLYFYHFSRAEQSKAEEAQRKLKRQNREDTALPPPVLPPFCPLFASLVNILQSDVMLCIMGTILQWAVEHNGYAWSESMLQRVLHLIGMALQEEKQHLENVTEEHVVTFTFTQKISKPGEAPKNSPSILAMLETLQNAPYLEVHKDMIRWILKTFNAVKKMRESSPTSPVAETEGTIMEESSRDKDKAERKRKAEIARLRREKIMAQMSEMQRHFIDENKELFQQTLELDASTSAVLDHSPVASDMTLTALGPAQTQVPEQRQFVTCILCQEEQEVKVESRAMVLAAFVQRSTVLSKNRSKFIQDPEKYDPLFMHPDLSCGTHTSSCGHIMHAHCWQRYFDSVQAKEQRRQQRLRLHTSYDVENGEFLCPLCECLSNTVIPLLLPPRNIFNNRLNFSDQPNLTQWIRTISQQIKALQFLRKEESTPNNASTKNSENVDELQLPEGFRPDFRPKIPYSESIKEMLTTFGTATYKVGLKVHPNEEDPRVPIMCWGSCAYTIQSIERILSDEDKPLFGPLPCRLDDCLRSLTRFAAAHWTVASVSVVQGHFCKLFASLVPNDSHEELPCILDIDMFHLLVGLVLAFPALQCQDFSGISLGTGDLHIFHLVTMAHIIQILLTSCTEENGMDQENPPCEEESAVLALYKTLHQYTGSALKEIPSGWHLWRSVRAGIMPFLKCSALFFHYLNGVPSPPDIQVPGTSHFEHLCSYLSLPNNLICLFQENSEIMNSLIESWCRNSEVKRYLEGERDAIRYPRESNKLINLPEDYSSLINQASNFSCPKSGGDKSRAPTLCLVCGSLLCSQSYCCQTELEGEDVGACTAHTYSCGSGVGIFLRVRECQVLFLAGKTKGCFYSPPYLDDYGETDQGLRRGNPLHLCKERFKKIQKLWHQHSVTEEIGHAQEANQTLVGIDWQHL

[2] = target: T2, ML-UBE2M peptide (XY-UBE2M, NatC/E/F-type N-terminus) (human); assay: as above
T2 sequence (peptide, biotin on the added C-terminal lysine (K-biotin)): MLKLFSLKQQKK

[3] = target: T3, FI-UBE2M peptide (XY-UBE2M, Arg/N-degron type 2 control) (human); assay: as above
T3 sequence (peptide, biotin on the added C-terminal lysine (K-biotin)): FIKLFSLKQQKK

[4] = target: T4, MY-UBE2M peptide (XY-UBE2M, NatC/E/F-type N-terminus) (human); assay: as above
T4 sequence (peptide, biotin on the added C-terminal lysine (K-biotin)): MYKLFSLKQQKK

[5] = target: T5, MF-UBE2M peptide (XY-UBE2M, NatC/E/F-type N-terminus) (human); assay: as above
T5 sequence (peptide, biotin on the added C-terminal lysine (K-biotin)): MFKLFSLKQQKK

[6] = target: Phe-starting control peptide F-nsP4 (11-mer Sindbis nsP4-derived peptide) (Sindbis virus); assay: pull-down; biotinylated UBE2M and X-nsP4 peptides on streptavidin magnetic beads; extract of HAP1 WT cells transiently expressing UBR4-N-FLAG (300-500 ug total protein); binding buffer 20 mM HEPES pH 7.9, 200 mM KCl, 0.05% Tween 20, 10% glycerol; overnight at 4 C; immunoblot; only the target purified
[7] = target: Gly-starting control peptide G-nsP4 (11-mer Sindbis nsP4-derived peptide) (Sindbis virus); assay: as above
[8] = target: Arg-starting control peptide R-nsP4 (11-mer Sindbis nsP4-derived peptide) (Sindbis virus); assay: as above
[9] = target: T6, non-Nt-acetylated UBE2M peptide (MI-UBE2M), biotinylated 11-mer from the N-terminal sequence of UBE2M (human); assay: pull-down; biotinylated peptides on streptavidin magnetic beads; extract of HeLa cells transiently expressing UBR4-V5 (300-500 ug total protein); binding buffer 20 mM HEPES pH 7.9, 200 mM KCl, 0.05% Tween 20, 10% glycerol; overnight at 4 C; immunoblot; only the target purified
T6 sequence (peptide, biotin on the added C-terminal lysine (K-biotin)): MIKLFSLKQQKK

Row | binding [1] | binding [2] | binding [3] | binding [4] | binding [5] | Substance | binding [6] | binding [7] | binding [8] | binding [9]
1 | binds weakly | binds | binds | binds | binds | KCMF1 (endogenous) (from UniProt Q9P0J7 1-381) (enzyme) | – | – | – | –
2 | – | – | – | – | – | UBR4-N-FLAG, N-terminal segment of mouse UBR4 containing the UBR box (from UniProt A2AN08 1222-1996) (domain or fragment) | no binding | no binding | no binding | –
3 | binds weakly | binds | binds | binds | binds | full-length UBR4-V5 (human) (from UniProt Q5T4S7 1-5183) (enzyme) | – | – | – | binds

Row | Substance | binding [1] | binding [2] | binding [3] | binding [4] | binding [5] | binding [6] | binding [7] | binding [8] | binding [9]
4 | UBR2 (endogenous) (from UniProt Q8IWV8 1-1755) (enzyme) | binds weakly | binds | binds | binds | binds | binds | no binding | no binding | binds
